Results from patent US20110182903A1, “NOVEL SOLUBLE CD83 POLYPEPTIDES, FORMULATIONS AND METHODS OF USE” (priority 2008, published 2011).

Experiment: pH degradation rate study, SE-HPLC
Assay type: physicochemical
Procedure: To further investigate the role of pH and its influence on protein stability, wild-type hCD83ext (lot 021 in PBS at pH 7.6) was freshly thawed and analyzed (first row of Table 6) or stored at room temperature and 2-8° C., at pH's of 4, 5, 6, 7, 8 and 9. Samples were kept at −70° C. until analyzed, after 1,2, 4 and 10 days of storage. These samples were then analyzed by SEC HPLC (Table 6) or using by SDS-PAGE Bioanalyzer (under reduced and non-reduced conditions; FIGS. 31-35).

[1] = Freshly prepared on day of analysis, 0 days (PBS pH 7.6), listed as wild-type hCD83ext

B1: hCD83ext-wt: recombinant human sCD83 (CD83 extracellular domain) purified from E. coli, wild type form, SEQ ID NO:5 (protein)
chain: GSPGTPEVKVACSEDVDLPCTAPWDPQVPYTVSWVKLLEGGEERMETPQEDHLRGQHYHQKGQNGSFDAPNERPYSLKIRNTTSCNSGTYRCTLQDPDGQRNLSGKVILRVTGCPAQRKEETFKKYRAEI
modifications: Synthetic extracellular domain of human CD83 with the addition of Gly-Ser-Pro-Gly at the N-terminus and Ile at the C-terminus
- % AGGREGATE [1]: 1.98% and 2.20% and 2.13%
- % FRAGMENTS [1]: 43.67% and 38.33% and 40.69%
- % MONOMER [1]: 54.35% and 59.47% and 57.18%
- % FRAGMENTS (pH 5, 2-8 C., 10 days): 41.55%
- % AGGREGATE (pH 5, RT, 1 day): 0.00%
- % FRAGMENTS (pH 5, RT, 1 day): 46.42%
- % MONOMER (pH 5, RT, 1 day): 53.58%
- % AGGREGATE (pH 5, RT, 10 days): 4.61%
- % FRAGMENTS (pH 5, RT, 10 days): 54.23%
- % MONOMER (pH 5, RT, 10 days): 41.16%
- % AGGREGATE (pH 6, 2-8 C., 1 day): 6.39%
- % FRAGMENTS (pH 6, 2-8 C., 1 day): 45.07%
- % MONOMER (pH 6, 2-8 C., 1 day): 48.54%
- % AGGREGATE (pH 6, 2-8 C., 10 days): 9.90%
- % FRAGMENTS (pH 6, 2-8 C., 10 days): 45.94%
- % MONOMER (pH 6, 2-8 C., 10 days): 44.16%
- % AGGREGATE (pH 6, RT, 1 day): 0.00%
- % FRAGMENTS (pH 6, RT, 1 day): 46.19%
- % MONOMER (pH 6, RT, 1 day): 53.81%
- % AGGREGATE (pH 6, RT, 10 days): 11.78%
- % FRAGMENTS (pH 6, RT, 10 days): 57.05%
- % MONOMER (pH 6, RT, 10 days): 31.17%
- % AGGREGATE (pH 7, 2-8 C., 1 day): 6.02%
- % FRAGMENTS (pH 7, 2-8 C., 1 day): 37.63%
- % MONOMER (pH 7, 2-8 C., 1 day): 56.35%
- % AGGREGATE (pH 7, 2-8 C., 10 days): 12.60%
- % FRAGMENTS (pH 7, 2-8 C., 10 days): 44.39%
- % MONOMER (pH 7, 2-8 C., 10 days): 43.01%
- % AGGREGATE (pH 7, RT, 1 day): 0.00%
- % FRAGMENTS (pH 7, RT, 1 day): 47.89%
- % MONOMER (pH 7, RT, 1 day): 52.11%
- % AGGREGATE (pH 7, RT, 10 days): 17.27%
- % FRAGMENTS (pH 7, RT, 10 days): 54.12%
- % MONOMER (pH 7, RT, 10 days): 28.61%
- % AGGREGATE (pH 8, 2-8 C., 1 day): 5.76%
- % FRAGMENTS (pH 8, 2-8 C., 1 day): 35.49%
- % MONOMER (pH 8, 2-8 C., 1 day): 58.75%
- % AGGREGATE (pH 8, 2-8 C., 10 days): 9.75%
- % FRAGMENTS (pH 8, 2-8 C., 10 days): 77.99%
- % MONOMER (pH 8, 2-8 C., 10 days): 12.26%
- % AGGREGATE (pH 8, RT, 1 day): 4.66%
- % FRAGMENTS (pH 8, RT, 1 day): 42.02%
- % MONOMER (pH 8, RT, 1 day): 53.32%
- % AGGREGATE (pH 8, RT, 10 days): 22.25%
- % FRAGMENTS (pH 8, RT, 10 days): 46.63%
- % MONOMER (pH 8, RT, 10 days): 31.12%
- % AGGREGATE (pH 9, 2-8 C., 1 day): 9.03%
- % FRAGMENTS (pH 9, 2-8 C., 1 day): 31.91%
- % MONOMER (pH 9, 2-8 C., 1 day): 59.06%
- % AGGREGATE (pH 9, 2-8 C., 10 days): 16.05%
- % FRAGMENTS (pH 9, 2-8 C., 10 days): 37.08%
- % MONOMER (pH 9, 2-8 C., 10 days): 46.87%
- % AGGREGATE (pH 9, RT, 1 day): 4.79%
- % FRAGMENTS (pH 9, RT, 1 day): 37.14%
- % MONOMER (pH 9, RT, 1 day): 58.07%
- % AGGREGATE (pH 9, RT, 10 days): 20.16%
- % FRAGMENTS (pH 9, RT, 10 days): 44.27%
- % MONOMER (pH 9, RT, 10 days): 35.57%

Values joined by “and” are separate entries in the source; they are usually repeats but may differ in a detail not shown here. Equal entries are not always repeated.
